The source of these data is ChEMBL document CHEMBL4513135, “CO-ADD screening of IQOG CSIS (Spain) compounds”.

The experiment relates to Pseudomonas aeruginosa. The following applies: Concentration 32 ug.mL-1, ASSAY_TEST Inhibition of Bacterial Growth, detection method Absorption (OD600), MEDIA CAMHB, plate type 384well, NBS, CORNING #3640, time 18 hr.

For orientation: Inhibition means the relative decrease from the control value, in per cent.

Structures are written as SMILES. Several values for one entry are separate records, joined by “and”; a condition that tells them apart may be missing. Equal entries are not always repeated. Some of the results follow. Measured potencies and affinities stand elsewhere.

`O=C1OC(c2ccccc2)=NC1=Cc1ccc([N+](=O)[O-])cc1`: the Inhibition worked out at 22.35%.

As for `N#Cc1cccnc1N`, the Inhibition is on record as 25.87%. In the case of `O=C(O)c1c[nH]c2ccccc12`, the Inhibition amounted to 16.88%. On to `COC1=C(C#N)CCC(=O)N1`, for which the Inhibition is recorded as 19.61%. On to `N#Cc1ccc(Br)cc1N`, for which the Inhibition came out at 17.55%. Consider `CCOC(=O)c1c[nH]c2ccc(OCc3ccccc3)cc12`, for which the Inhibition worked out at 29.84%. Regarding `C#CCN(C)Cc1cc2cc(OCc3ccc(OC)c4ncccc34)ccc2n1C`, the Inhibition is -1.13%.

Turning to `COC(=O)C1(NC(=O)c2ccccc2)CC1c1ccccc1` (stereo not drawn), the Inhibition was determined as 23.63%. Take `NNC(=O)Cc1c[nH]c2ccccc12`: the Inhibition was found to be 44.75%.

In the case of `COc1ccc(CNNC(=O)c2cc3ccccc3[nH]2)cc1`, the Inhibition is recorded as 18.02%. On to `O=C(N[C@H]1CC[C@@H](Br)[C@@H](Br)C1)C(F)(F)F`, for which the Inhibition is given as 16.3%. On the same count and under the same terms, then `COc1ccc(-c2cc(-c3cc4ccc(F)cc4nc3Cl)cc(=O)[nH]2)cc1`, with -18.35%. Regarding `N#Cc1c(N)nc(S)c(C#N)c1-c1ccccc1`, the Inhibition worked out at 48.99%. As to `C#CCN(C)c1nc(NCC2CCN(Cc3ccccc3)CC2)c(C#N)c(-c2ccccc2)c1C#N`, the Inhibition is 29.48%. For `N#CC1=C(N)Oc2c(ccc3ccccc23)C1c1ccccc1` (stereo not drawn), the Inhibition came out at 22.69%. For the compound `C=CCNCc1cc2cc(OCCCC3CCN(Cc4ccccc4)CC3)ccc2[nH]1.O.O=C(O)C(=O)O.O=C(O)C(=O)O`, the Inhibition is listed as -10.32%.

As to `Nc1n[nH]c2c1C(c1ccccc1)CC(=O)N2` (stereo not drawn), the Inhibition came to 9.77%.

Take `CCOC(=O)c1c(C)nc2nc3c(c(N)c2c1-c1ccc(Cl)cc1)CCCCC3`: the Inhibition was -4.52%. With `CN1C/C(=C\Cl)n2c1c(C#N)cc(C#N)c2=O`, the Inhibition is on record as -43.15%. Consider `Nc1c2c(nc3c1C(c1ccc([N+](=O)[O-])cc1)c1c(ccc4ccccc14)O3)CCCC2` (stereo not drawn), for which the Inhibition is reported as 37.11%. On to `CCOC(=O)C1=C(C)Oc2nc3c(c(N)c2C1c1nccn1C)CCC3` (stereo not drawn), for which the Inhibition was -2.17%. On the same count and under the same terms, with `O=C(Cc1ccccc1)N/N=C/c1c[nH]c2ccccc12` the figure was 16.24%; with `O=C(O)c1cc2ccccc2[nH]1` [INDOLE-2-CARBOXYLIC ACID], 32.91%; with `ClCCC1CCN(Cc2ccccc2)CC1`, 35.51%.

Take `CC1=NC(=Cc2ccc([N+](=O)[O-])cc2)C(=O)O1`: the Inhibition worked out at 20.97%. Consider `CC(=O)NC(=Cc1ccccc1)C(=O)O`, for which the Inhibition is on record as 31.01%.

`Cc1ccc(S(=O)(=O)N[C@H]2CC[C@H](O)CC2)cc1`: the Inhibition is 19.59%. For the compound `N#CC1=C(N)Oc2c(ccc3ccccc23)C1c1ccc(Cl)c(Cl)c1` (stereo not drawn), the Inhibition was 1.22%. As to `COc1ccc(C=C2N=C(SC)N(C)C2=O)cc1`, the Inhibition is recorded as -10.86%.

With `CC1=C(CO)C(c2ccc(C#N)cc2)C(C#N)=C(N)O1` (stereo not drawn), the Inhibition was -3.49%. Consider `COc1cc(C2CC2(N)C(=O)O)ccc1O` (stereo not drawn), for which the Inhibition is 14.49%.

On to `O=C(N/N=C/c1c[nH]c2ccccc12)c1cc2ccccc2[nH]1`, for which the Inhibition is 38.1%. In the case of `N#Cc1cc(C#N)c(N2CCC(Cc3ccccc3)CC2)nc1N`, the Inhibition is on record as -7.35%.

Turning to `CC(=O)CC(=O)N1[C@@H]2C[C@H]3CCC2(CS1(=O)=O)C3(C)C`, the Inhibition was 23.04%. Still for that read-out and setting: then `CN(C)c1cccc(C(=O)c2cccc(N(C)C)c2)c1`, with 22.63%. For `O=C1SC(SCc2ccccc2)=NC1=Cc1ccccc1`, the Inhibition came to 16.62%.

For `Cc1ccc(CNNC(N)=O)cc1.Cl`, the Inhibition worked out at 29.44%.

`NNC(=O)c1c[nH]c2ccc(OCc3ccccc3)cc12`: the Inhibition came out at 18.46%. Take `N#Cc1c(N)nc(NCCCCC2CCN(Cc3ccccc3)CC2)c(C#N)c1-c1ccccc1`: the Inhibition came to 35.54%.

Take `N#Cc1c(N)nc(Cl)c(C#N)c1-c1ccccc1`: the Inhibition is 10%. Consider `O=C(O)C(=Cc1ccccc1)NC(=O)c1ccccc1`, for which the Inhibition came out at 48.77%. Turning to `COC(=O)C(=Cc1ccc([N+](=O)[O-])cc1)NC(=O)c1ccccc1`, the Inhibition was 19.19%. For the compound `COC(=O)C(C#N)=Cc1ccccc1`, the Inhibition is 28.23%. Turning to `Nc1c2c(nc3c1C(c1ccc([N+](=O)[O-])cc1)c1ccc4ccccc4c1O3)CCCC2` (stereo not drawn), the Inhibition is on record as -5.68%. Still for that read-out and setting: with `C#CCNc1ncc(C#N)c(N)n1` the figure was 21.34%; with `Cn1ccnc1C1c2ccc3cccnc3c2Oc2nc3c(c(N)c21)CCC3` (stereo not drawn), -13.87%. With `CN(C)c1nc(N)c(C#N)cc1C#N.Cl`, where the note is “32 ug/mL”, the Inhibition is 7.25% and -1.22%. With `COc1ccc(/C=C2/N=C(c3ccccc3)OC2=O)cc1OC`, the Inhibition is -24.25%. The same measure, in the same setting: with `COc1nc(NC(C)=O)c(C#N)c(-c2ccccc2)c1C#N` the figure was 33.32%; with `COc1ccc(C2C(C#N)=C(N)Oc3c2ccc2ccccc32)c(OC)c1` (stereo not drawn), 24.98%.

As to `C#CCNc1nc(NC2CCN(Cc3ccccc3)CC2)c(C#N)cc1C#N.Cl`, the Inhibition is -3.29%. As to `CC(C)NNC(=O)Cc1c[nH]c2ccccc12`, the Inhibition worked out at 53.17%. As for `O=C(Cc1c[nH]c2ccccc12)NNCc1ccccc1`, the Inhibition was found to be 23.11%.

Take `COc1cc(C2c3c(nc4c(c3N)CCCC4)Oc3ccc4ccccc4c32)cc(OC)c1OC` (stereo not drawn): the Inhibition stood at 45.09%. Take `C#CCNc1nc(NCCCCC2CCN(Cc3ccccc3)CC2)c(C#N)cc1C#N`: the Inhibition is listed as -5.56%. Take `c1ccc(-c2nc3c4cnn(-c5ccccc5)c4ncn3n2)cc1`: the Inhibition is given as 22.37%. Still for that read-out and setting: with `Cl.NNN1CCc2ccccc21` the figure was 34.79%; with `CC(C)(C)OC(=O)Nc1ccccn1`, 18.78%. Turning to `C#CCN(C)Cc1cc2cc(OCc3ccccc3)ccc2n1C.O=C(O)C(=O)O`, the Inhibition is on record as 12.92%. As to `COc1nc2ccccc2cc1C=O`, the Inhibition is recorded as -2.75%.

Regarding `C#CCN(C)c1nc(N(C)CC#C)c(C#N)cc1C#N`, the Inhibition came out at 12.11%. Consider `COc1ccc2nc(Cl)c(C=O)cc2c1`, for which the Inhibition (32 ug/mL) is -3.35% and -1.97%.

Regarding `COC(=O)C(=Cc1ccc(OC)cc1)NC(=O)c1ccccc1`, the Inhibition was determined as 29.17%. Same read-out and setting: with `COC(=O)/C(=C/c1ccc(O)cc1)NC(=O)c1ccccc1` the figure was 11.52%; with `Cc1cc(Br)cc(C)c1NC=C(C#N)C#N`, 4.53%. Regarding `CCOc1nc(N)c(C#N)c(-c2ccccc2)c1C#N`, the Inhibition is reported as -7.53%. As to `Cc1nc(Nc2ccccc2)c2cnn(-c3ccccc3)c2n1`, the Inhibition is 28.22%. On the same count and under the same terms, then `CNC(=O)c1c(Cl)c2cc(OCc3ccccc3)ccc2n1C`, with 34.06%. In the case of `CCOC(=O)C1=C(C)NC(N)=C(C#N)C1c1ccc([N+](=O)[O-])cc1` (stereo not drawn), the Inhibition came out at 8.94%. For the compound `CC1(C)OS(=O)(=O)C2=C1NC(N)=C(C#N)C2c1ccccc1` (stereo not drawn), the Inhibition is 32.54%. Same read-out and setting: with `C#CCN(C)c1nc(NC2CCN(Cc3ccccc3)CC2)c(C#N)c(-c2ccccc2)c1C#N` the figure was 4.69%; with `COc1cccc(C2C(C#N)=C(N)Oc3ccc4ccccc4c32)c1` (stereo not drawn), 13.23%.

As to `CC#CCN.Cl`, the Inhibition is 5.95%.

As for `C#CCN(Cc1ccccc1)c1nc(N)c(C#N)c(-c2ccccc2)c1C#N`, the Inhibition came out at 4.27%.

As to `N#CC1(Br)C(=NBr)Oc2ccc3ccccc3c2C1c1ccccc1[N+](=O)[O-]` (stereo not drawn), the Inhibition was determined as 4.43%.

As to `CCCCCCC(C)NNC(=O)c1cc2ccccc2[nH]1` (stereo not drawn), the Inhibition is listed as -20.27%. Consider `N#Cc1c(N)nc2[nH]nc(N)c2c1-c1ccccc1`, for which the Inhibition amounted to 14.3%. With `Cc1ccc(/C=N/NC(=O)c2c[nH]c3ccccc23)cc1`, the Inhibition worked out at 22.38%. Same read-out and setting: with `Cc1nn(-c2ccccc2)c2ncnc(Nc3ccccc3)c12` the figure was 25.35%. For `Cc1ccc2nc(Cl)c(/C=N/OCc3ccccc3)cc2c1`, the Inhibition was found to be 5.37%. For `N#Cc1c(-c2ccccc2)c2c(ccc3ccccc32)oc1=O`, the Inhibition was found to be 16.46%. Same read-out and setting: with `N#Cc1c(Cl)nc(Sc2ccccc2)c(C#N)c1-c1ccccc1` the figure was 14.08%. As for `COc1ccc(C2c3ccc4ccccc4c3OC(=NBr)C2(Br)C#N)cc1` (stereo not drawn), the Inhibition turned out to be 3.27%. `C#CCNc1cccc(F)n1`: the Inhibition turned out to be 15.6%. With `CN(C)c1nc(Cl)c(C#N)c(-c2ccccc2)c1C#N`, the Inhibition stood at 14.67%. The same measure, in the same setting: then `O=C(N/N=C/c1c[nH]c2ccccc12)c1ccc(Cl)cc1`, with 21.47%.

Take `N#CC1=C(N)Oc2c(ccc3ccccc23)C1c1c(Cl)cccc1Cl` (stereo not drawn): the Inhibition is given as 24.94%.

Consider `COc1nc2ccc(C)cc2cc1C=O`, for which the Inhibition is listed as -3.42%. The same measure, in the same setting: with `Cc1ccc(C2CC2(N)C(=O)O)cc1.Cl` (stereo not drawn) the figure was 34.33%; with `CCOC(=O)C1=C(C)OC(N)=C(C#N)C1c1ccccc1` (stereo not drawn), 14.54%; with `CC(=O)n1cc(/C=C2\N=C(c3ccccc3)OC2=O)c2ccccc21`, 14.31%. On the same count and under the same terms, then `COc1nc(Cl)c(C#N)c(-c2ccccc2)c1C#N`, with 1.41%; and `C#CCNc1nc(Cl)c(C#N)c(-c2ccccc2)c1C#N`, with -6.56%; and `CCOC(=O)C1=C(C)OC(N)=C(C#N)C1c1cccs1` (stereo not drawn), with 1.21%. For the compound `COc1ccc2c(c1)cc(CN(C)C)n2C`, the Inhibition stood at 32.78%. The same measure, in the same setting: with `COc1ccc(C=C2N=C(c3ccccc3)SC2=O)cc1` the figure was 50.12%.

Take `COc1cccc(C2c3c(ccc4ccccc34)OC(=N)C2(Br)C#N)c1` (stereo not drawn): for the setting “32 ug/mL”, the Inhibition is 26.4% and 15.62%. Take `Cc1ccc(CNNC(=O)c2cc3ccccc3n2C)cc1`: the Inhibition is listed as -0.3%. Turning to `N#CC1=C(Cl)Oc2c(ccc3ccccc23)C1c1ccc([N+](=O)[O-])cc1` (stereo not drawn), the Inhibition worked out at 42.64%.

`O=C(N/N=C/c1ccc(Cl)cc1)c1cc2ccccc2[nH]1`: the Inhibition is listed as 9.93%.

With `CC(=O)Nc1nn(C)c2nc3nc4c(c(N)c3cc12)CCCC4`, the Inhibition (32 ug/mL) is 10.22% and 17.37%. For the compound `O=C(Cc1c[nH]c2ccccc12)NN=C1CCCCCC1`, the Inhibition is listed as 8.5%. For the compound `N#CC1=C(N)Oc2ccc3ccccc3c2C1c1ccccc1[N+](=O)[O-]` (stereo not drawn), the Inhibition came to 17.18%.

Consider `N#Cc1cc(C#N)c(Cl)nc1Cl`, for which the Inhibition came to 19.49%. For the compound `COc1ccc(-c2c(C#N)c(=O)oc3c2ccc2ccccc23)cc1`, the Inhibition (32 ug/mL) was -15.02% and -12.79%. For the compound `NNC(=O)C1(NC(=O)c2ccccc2)CC1c1cccc(O)c1` (stereo not drawn), the Inhibition is recorded as 38.87%. Same read-out and setting: with `CCCC(C)NNC(=O)c1cc2ccccc2[nH]1` (stereo not drawn) the figure was 11.51%; with `CC(C)(C)OC(=O)Nc1ncccc1Br`, 16.38%.
